The target of test [1] is T1, Flag-tagged Papi (Papi-Flag), wild type (Bombyx) (UniProt H9JD76).
T1 sequence: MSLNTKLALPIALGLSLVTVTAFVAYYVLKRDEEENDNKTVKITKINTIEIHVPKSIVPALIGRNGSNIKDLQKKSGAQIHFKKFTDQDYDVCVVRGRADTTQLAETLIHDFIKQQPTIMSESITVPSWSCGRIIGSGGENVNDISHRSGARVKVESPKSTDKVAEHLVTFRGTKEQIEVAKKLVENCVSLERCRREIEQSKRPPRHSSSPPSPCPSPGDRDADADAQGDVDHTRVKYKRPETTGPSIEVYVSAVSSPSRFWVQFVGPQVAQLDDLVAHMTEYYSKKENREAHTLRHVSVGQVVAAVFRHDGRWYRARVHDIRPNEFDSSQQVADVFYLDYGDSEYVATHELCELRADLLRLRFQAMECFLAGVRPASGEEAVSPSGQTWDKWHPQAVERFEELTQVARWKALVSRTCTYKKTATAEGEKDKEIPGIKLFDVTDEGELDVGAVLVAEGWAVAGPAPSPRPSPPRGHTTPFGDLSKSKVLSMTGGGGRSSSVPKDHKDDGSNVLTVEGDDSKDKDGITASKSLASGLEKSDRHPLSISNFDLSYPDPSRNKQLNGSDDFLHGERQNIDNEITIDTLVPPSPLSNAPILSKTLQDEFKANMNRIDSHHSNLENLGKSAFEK
The experiment in a line: co-IP; Papi-Flag (WT or mutant) immunoprecipitated from BmN4 lysates with anti-Flag antibody on Dynabeads Protein G, 4 °C, 2 h; binding buffer with 150 mM potassium acetate and 0.5% Triton X-100; western blot for endogenous Siwi. On the technique in general: In western blotting, separated proteins are transferred to a membrane and probed.

Test [2] deals with T2, KH mutant of Papi (I69N/V142N) (Bombyx) (UniProt H9JD76).
T2 sequence: T1 sequence with I69N, V142N
The test is described as above.

The target of test [3] is T3, Papi1-480 mutant (Papi-1-480-3×Flag) (Bombyx) (UniProt H9JD76).
T3 sequence: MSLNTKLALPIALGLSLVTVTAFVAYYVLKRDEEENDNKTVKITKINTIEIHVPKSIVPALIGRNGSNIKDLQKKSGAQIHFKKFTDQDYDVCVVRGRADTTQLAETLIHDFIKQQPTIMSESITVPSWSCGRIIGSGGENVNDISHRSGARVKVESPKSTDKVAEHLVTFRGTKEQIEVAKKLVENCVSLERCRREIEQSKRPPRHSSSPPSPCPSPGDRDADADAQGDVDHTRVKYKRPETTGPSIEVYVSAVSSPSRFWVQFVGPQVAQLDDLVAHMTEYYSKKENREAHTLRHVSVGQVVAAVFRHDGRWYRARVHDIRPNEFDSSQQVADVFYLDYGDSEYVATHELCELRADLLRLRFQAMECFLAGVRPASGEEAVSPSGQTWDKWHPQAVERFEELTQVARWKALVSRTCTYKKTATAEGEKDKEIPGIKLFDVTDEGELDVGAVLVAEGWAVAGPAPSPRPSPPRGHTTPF
The test is described as above.

The target of test [4] is T4, Papi1-222 mutant (Papi1-222-Flag) (Bombyx) (UniProt H9JD76).
T4 sequence: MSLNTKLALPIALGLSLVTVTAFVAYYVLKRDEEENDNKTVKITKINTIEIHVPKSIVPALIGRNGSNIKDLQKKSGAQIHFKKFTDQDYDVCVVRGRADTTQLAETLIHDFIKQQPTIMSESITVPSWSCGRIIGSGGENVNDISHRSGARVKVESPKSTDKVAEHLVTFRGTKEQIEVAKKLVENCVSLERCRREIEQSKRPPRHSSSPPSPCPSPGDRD
The description is as above.

For test [5], the target named is T5, Papi-Flag S547A mutant (Bombyx) (UniProt H9JD76).
T5 sequence: T1 sequence with S547A
The test is described as above.

For test [6], the target named is T6, Papi, endogenous (Bombyx mori (endogenous in BmN4)) (UniProt H9JD76).
T6 sequence: T1 sequence
Description: co-IP; Papi complex immunoprecipitated from normal (Control) BmN4 lysates that contained Flag-Par-1 (cytoplasmic and mitochondrial materials); blots with anti-Siwi and anti-Flag.

Numbering of substitutions follows the chain as printed. No constants are given. Whether binding was seen depends on the method and setting. In cells and extracts the contact can be indirect. Some binding calls cover weakened binding; strength is not graded here. For part of these data: Tags and fused reporters may be left off the sequences shown.

B1: Siwi, endogenous (protein, UniProt A8D8P8 1-899)
chain: MSEPRGRGRARGRAGRGGDGGGPAPRRPGEQAGPSQQSMPPGPRPQPPSGWGPQSSVPPVRAGVPTPTAQAGRASHRVTPTTHEHPGDIDVQQRMQKLELGPHSSGGGDASSVVGRGSRRGGGRVLPETISILRTRPEAVTSKKGTSGTPLDLLANYFTVETTPKWGLYQYHVDISPEEDSTGVRKALMRVHSKTLGGYLFDGTVLYTVNRLHPDPMELYSDRKTDNERMRILIKLTCEVSPGDYHYIQIFNIIIRKCFNLLKLQLMGRDYFDPEAKIDIPEFKLQIWPGYKTTINQYEDRLLLVTEIAHKVLRMDTVLQMLSEYAATKGNNYKKIFLEDVVGKIVMTDYNKRTYRVDDVAWNVSPKSTFKMRDENITYIEYYYKKYNLRIQDPGQPLLISRSKPREIRAGLPELIYLVPELCRQTGLSDEMRANFKLMRSLDVHTKIGPDKRIEKLNNFNRRFTSTPEVVEELATWSLKLSKELVKIKGRQLPPENIIQANNVKYPAGDTTEGWTRDMRSKHLLAIAQLNSWVVITPERQRRDTESFIDLIIKTGGGVGFRMRSPDLVVIRHDGPIEYANMCEEVIARKNPALILCVLARNYADRYEAIKKKCTVDRAVPTQVVCARNMSSKSAMSIATKVAIQINCKLGGSPWTVDIPLPSLMVVGYDVCHDTRSKEKSFGAFVATLDKQMTQYYSIVNAHTSGEELSSHMGFNIASAVKKFREKNGTYPARIFIYRDGVGDGQIPYVHSHEVAEIKKKLAEIYAGVEIKLAFIIVSKRINTRIFVQRGRSGENPRPGTVIDDVVTLPERYDFYLVSQNVREGTIAPTSYNVIEDTTGLNPDRIQRLTYKLTHLYFNCSSQVRVPSVCQYAHKLAFLAANSLHNQPHYSLNETLYFL
On to B1, for which the binding result in test [1] is on record as “binds”; in test [2], “binds”; in test [3], “binds”; in test [4] it was “no binding”; in test [5], “binds”; in test [6] it was “binds”.
